From the antibiotic and cytotoxicity screens of Wong et al. (2023)
This is one part of the list.

Assays:
HSkMC = human skeletal muscle cells; assay: cytotoxicity call (relative viability < 0.9); conditions: 10 µM
HepG2 = assay: cytotoxicity call (relative viability < 0.9); conditions: 10 µM
S. aureus RN4220 = assay: growth inhibition call (relative growth <= 0.2); conditions: 50 µM

NCCNCCNCCN
cytotoxicity call (HSkMC): inactive
cytotoxicity call (HepG2): inactive
growth inhibition call (S. aureus RN4220): inactive

C[C@@H]1CCCCO[C@@H](CN(C)C(=O)Nc2cccc3ccccc23)[C@H](C)CN([C@@H](C)CO)C(=O)c2cc(NC(=O)CCC(F)(F)F)ccc2O1
cytotoxicity call (HSkMC): inactive
cytotoxicity call (HepG2): inactive
growth inhibition call (S. aureus RN4220): inactive

CCc1nc2ccc(C(=O)Nc3cccc(OCC(=O)N(C)C)c3)cn2c1N(C)CCN1CCOCC1
cytotoxicity call (HSkMC): inactive
cytotoxicity call (HepG2): inactive
growth inhibition call (S. aureus RN4220): inactive

C[C@H](CO)N1C[C@H](C)[C@@H](CN(C)S(=O)(=O)c2cccs2)Oc2ccc(NS(=O)(=O)c3ccccc3)cc2C1=O
cytotoxicity call (HSkMC): inactive
cytotoxicity call (HepG2): inactive
growth inhibition call (S. aureus RN4220): inactive

COc1ccc(S(=O)(=O)Nc2ccc3c(c2)CC(=O)N([C@H](C)CO)C[C@H](C)[C@@H](CN(C)CC2CC2)O3)cc1
cytotoxicity call (HSkMC): inactive
cytotoxicity call (HepG2): inactive
growth inhibition call (S. aureus RN4220): inactive

COc1ccc(/C=C/CN2CCC(C(=O)N[C@@H](c3ccc(F)cc3)c3ccc4ccccc4n3)CC2)cc1
cytotoxicity call (HSkMC): inactive
cytotoxicity call (HepG2): active
growth inhibition call (S. aureus RN4220): inactive

Cc1ccc(S(=O)(=O)Nc2ccc3c(c2)CC(=O)N([C@H](C)CO)C[C@@H](C)[C@@H](CN(C)Cc2ccc(Cl)c(Cl)c2)O3)cc1
cytotoxicity call (HSkMC): active
cytotoxicity call (HepG2): active
growth inhibition call (S. aureus RN4220): inactive

O=C(C[C@@H]1CC[C@@H](NC(=O)CN2CCOCC2)[C@H](CO)O1)NC1CCC1
cytotoxicity call (HSkMC): inactive
cytotoxicity call (HepG2): inactive
growth inhibition call (S. aureus RN4220): inactive

CCO[C@@H]1OC(C(=O)N2CCN(Cc3ccccc3)CC2)=C[C@H](c2ccc(Br)cc2)[C@H]1CCCOC(=O)NCCCCCC(=O)NO
cytotoxicity call (HSkMC): inactive
cytotoxicity call (HepG2): inactive
growth inhibition call (S. aureus RN4220): inactive

C[C@@H]1CCCCO[C@@H](CN(C)C(=O)Nc2ccc3c(c2)OCO3)[C@H](C)CN([C@@H](C)CO)C(=O)c2cc(NS(=O)(=O)c3cccs3)ccc2O1
cytotoxicity call (HSkMC): inactive
cytotoxicity call (HepG2): inactive
growth inhibition call (S. aureus RN4220): inactive

CN1CCN(CC#N)C(=O)C12CCN([C@H]1CCOC1)CC2
cytotoxicity call (HSkMC): inactive
cytotoxicity call (HepG2): inactive
growth inhibition call (S. aureus RN4220): inactive

C[C@@H]1CN([C@@H](C)CO)C(=O)Cc2cc(NC(=O)c3ccncc3)ccc2O[C@@H]1CN(C)Cc1ccc(C(=O)O)cc1
cytotoxicity call (HSkMC): inactive
cytotoxicity call (HepG2): inactive
growth inhibition call (S. aureus RN4220): inactive

NCC[C@@H](Cc1ccccc1)c1ccc2c(c1)OCO2
cytotoxicity call (HSkMC): inactive
cytotoxicity call (HepG2): inactive
growth inhibition call (S. aureus RN4220): inactive

Cc1n[nH]c(=O)n1-c1cccc(C(=O)O)c1
cytotoxicity call (HSkMC): inactive
cytotoxicity call (HepG2): inactive
growth inhibition call (S. aureus RN4220): inactive

C[C@@H]1CN([C@@H](C)CO)C(=O)c2cc(NS(=O)(=O)c3ccc(F)cc3)ccc2O[C@@H](C)CCCCO[C@H]1CN(C)CC1CCCCC1
cytotoxicity call (HSkMC): inactive
cytotoxicity call (HepG2): inactive
growth inhibition call (S. aureus RN4220): inactive

C[C@H]1CN([C@@H](C)CO)C(=O)c2cc(NS(=O)(=O)c3ccccc3)ccc2O[C@@H]1CN(C)Cc1ccc(-c2ccccc2)cc1
cytotoxicity call (HSkMC): inactive
cytotoxicity call (HepG2): inactive
growth inhibition call (S. aureus RN4220): inactive

C[C@H](CO)N1C[C@H](C)[C@@H](CN(C)S(=O)(=O)c2ccc(F)cc2)Oc2ncc(Br)cc2C1=O
cytotoxicity call (HSkMC): inactive
cytotoxicity call (HepG2): inactive
growth inhibition call (S. aureus RN4220): inactive

O=C(C[C@@H]1C[C@H]2c3cc(NC(=O)Cc4ccncc4)ccc3O[C@H]2[C@H](CO)O1)NCc1cc(F)ccc1F
cytotoxicity call (HSkMC): inactive
cytotoxicity call (HepG2): inactive
growth inhibition call (S. aureus RN4220): inactive

C[C@@H]1CCCCO[C@H](CN(C)CC2CCCCC2)[C@H](C)CN([C@H](C)CO)C(=O)c2cc(NC(=O)Nc3ccc(F)cc3)ccc2O1
cytotoxicity call (HSkMC): active
cytotoxicity call (HepG2): active
growth inhibition call (S. aureus RN4220): inactive

C[C@@H]1CN([C@@H](C)CO)C(=O)Cc2cc(NC(=O)Nc3ccc(C(F)(F)F)cc3)ccc2O[C@H]1CN(C)C(=O)Nc1ccc(C(F)(F)F)cc1
cytotoxicity call (HSkMC): inactive
cytotoxicity call (HepG2): active
growth inhibition call (S. aureus RN4220): inactive

C[C@H](CO)N1C[C@H](C)[C@H](CN(C)C(=O)NC2CCCCC2)Oc2ccc(NS(C)(=O)=O)cc2C1=O
cytotoxicity call (HSkMC): inactive
cytotoxicity call (HepG2): inactive
growth inhibition call (S. aureus RN4220): inactive

CCCNC(=O)N1C[C@H](C)[C@H](OC)CN(C)C(=O)c2cc(NS(=O)(=O)CC(F)(F)F)ccc2OC[C@H]1C
cytotoxicity call (HSkMC): inactive
cytotoxicity call (HepG2): inactive
growth inhibition call (S. aureus RN4220): inactive

COc1ccccc1S(=O)(=O)N(C)C[C@@H]1OCc2cnnn2CCCC(=O)N([C@@H](C)CO)C[C@@H]1C
cytotoxicity call (HSkMC): inactive
cytotoxicity call (HepG2): inactive
growth inhibition call (S. aureus RN4220): inactive

COc1cccc(-c2ccc3c(c2)O[C@H](CN(C)Cc2cncnc2)[C@@H](C)CN([C@@H](C)CO)S3(=O)=O)c1
cytotoxicity call (HSkMC): inactive
cytotoxicity call (HepG2): inactive
growth inhibition call (S. aureus RN4220): inactive

C[C@@H]1CN([C@@H](C)CO)C(=O)c2cccc(NC(=O)c3ccc(-c4nccs4)cc3)c2O[C@@H]1CN(C)Cc1ccccc1
cytotoxicity call (HSkMC): inactive
cytotoxicity call (HepG2): inactive
growth inhibition call (S. aureus RN4220): inactive

C[C@@H]1CCCCO[C@H](CN(C)S(=O)(=O)c2ccc(Cl)cc2)[C@H](C)CN([C@@H](C)CO)C(=O)c2cc(NC(=O)Nc3ccccc3)ccc2O1
cytotoxicity call (HSkMC): inactive
cytotoxicity call (HepG2): inactive
growth inhibition call (S. aureus RN4220): inactive
